The other results are listed elsewhere or left out. Values were computed here from the reads of four pooled replicates and scatter widely.

The target in the assay is T1, Pho4 (S. cerevisiae) (UniProt P07270).
T1 sequence: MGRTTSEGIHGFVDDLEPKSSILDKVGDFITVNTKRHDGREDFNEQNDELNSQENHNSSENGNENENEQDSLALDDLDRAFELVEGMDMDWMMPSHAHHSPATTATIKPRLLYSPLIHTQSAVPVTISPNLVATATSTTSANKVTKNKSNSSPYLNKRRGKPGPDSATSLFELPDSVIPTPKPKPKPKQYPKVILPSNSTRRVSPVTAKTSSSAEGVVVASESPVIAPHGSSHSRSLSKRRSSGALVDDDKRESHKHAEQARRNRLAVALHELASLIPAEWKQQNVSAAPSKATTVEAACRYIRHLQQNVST
Briefly: relative binding free energy (BET-seq); higher = weaker binding. The settings on record: reference: library average.
Consider CGAGTCACGTGGTGTG, for which the “relative binding free energy” value is 0.05 kcal/mol.

Turning to GGTTACACGTGGTTCA, the “relative binding free energy” value was determined as 0.17 kcal/mol.

As for GTTGCCACGTGTGCAG, the “relative binding free energy” value is -0.03 kcal/mol.

TAGAGCACGTGGTGTT: the “relative binding free energy” value is -0.22 kcal/mol.

With GGTTACACGTGCTTGT, the “relative binding free energy” value is -0.03 kcal/mol.

For GGTGGCACGTGAATCG, the “relative binding free energy” value turned out to be 0.33 kcal/mol.

As for GCTGACACGTGTGTTG, the “relative binding free energy” value came to 0.01 kcal/mol.

In the case of ACTGGCACGTGAAGTG, the “relative binding free energy” value worked out at 0.12 kcal/mol.

As to GGTTGCACGTGCATTT, the “relative binding free energy” value was 0.15 kcal/mol.

As for ACGTGCACGTGGTTTG, the “relative binding free energy” value is -0.03 kcal/mol.

Turning to GTTAACACGTGTAGTA, the “relative binding free energy” value was 0.03 kcal/mol.

As to TGAGGCACGTGGCAAG, the “relative binding free energy” value is -0.22 kcal/mol.

Regarding GGTAGCACGTGTTCGG, the “relative binding free energy” value is 0.03 kcal/mol.

As to TGCGGCACGTGGTGAC, the “relative binding free energy” value is -0.02 kcal/mol.

Take TGAAACACGTGATGTT: the “relative binding free energy” value was 0.27 kcal/mol.

CTGTGCACGTGGTTTT: the “relative binding free energy” value stood at 0 kcal/mol.

Turning to TAGTTCACGTGGAGAA, the “relative binding free energy” value turned out to be 0.13 kcal/mol.

With GTAAACACGTGGTCTT, the “relative binding free energy” value was -0.09 kcal/mol.

On to GGGTTCACGTGTAACG, for which the “relative binding free energy” value was 0.25 kcal/mol.

Turning to GGTTGCACGTGTTACT, the “relative binding free energy” value turned out to be 0.03 kcal/mol.

Take TAATGCACGTGACTGG: the “relative binding free energy” value is 0.04 kcal/mol.

In the case of GGCTTCACGTGAACGG, the “relative binding free energy” value was determined as 0.51 kcal/mol.

Consider TAAAGCACGTGGGAGG, for which the “relative binding free energy” value was -0.26 kcal/mol.

TTGTGCACGTGTGGCG: the “relative binding free energy” value is -0.03 kcal/mol.

As to TATGTCACGTGCAGTT, the “relative binding free energy” value was found to be 0.07 kcal/mol.

With GATGGCACGTGATGCA, the “relative binding free energy” value amounted to 0.16 kcal/mol.

For TGTGGCACGTGGAGAA, the “relative binding free energy” value is -0.05 kcal/mol.

For TCGTTCACGTGAGATT, the “relative binding free energy” value is 0.36 kcal/mol.

In the case of CTTGTCACGTGGAGTA, the “relative binding free energy” value was -0.06 kcal/mol.

As to ATTCGCACGTGAATGT, the “relative binding free energy” value was 0.2 kcal/mol.

For TATTACACGTGTGTGG, the “relative binding free energy” value is -0.02 kcal/mol.

TGACGCACGTGTTTGT: the “relative binding free energy” value was -0.15 kcal/mol.

For the sequence GGGACCACGTGAGTGG, the “relative binding free energy” value stood at 0.22 kcal/mol.

For TTACTCACGTGGGGGG, the “relative binding free energy” value was found to be 0 kcal/mol.

With AATGTCACGTGAATAG, the “relative binding free energy” value amounted to 0.24 kcal/mol.

As to CTTTACACGTGATATG, the “relative binding free energy” value was 0.16 kcal/mol.

Take GGATTCACGTGTAGCT: the “relative binding free energy” value came out at 0.21 kcal/mol.

GGGGTCACGTGCGGAG: the “relative binding free energy” value turned out to be 0.1 kcal/mol.

Regarding GAGGGCACGTGGGCCT, the “relative binding free energy” value was -0.14 kcal/mol.

Regarding ATTGCCACGTGTTGGT, the “relative binding free energy” value is -0.02 kcal/mol.

For the sequence ATAGGCACGTGCTGGG, the “relative binding free energy” value is -0.2 kcal/mol.

Consider GCAGGCACGTGCGGGT, for which the “relative binding free energy” value was -0.12 kcal/mol.

In the case of CGTTCCACGTGAAGGG, the “relative binding free energy” value is 0.37 kcal/mol.

Regarding CATGGCACGTGTGGTA, the “relative binding free energy” value was -0.01 kcal/mol.

Take TATGTCACGTGGGTAA: the “relative binding free energy” value was -0.09 kcal/mol.

Take TATGGCACGTGATGAG: the “relative binding free energy” value was -0.06 kcal/mol.

For the sequence TTATCCACGTGCGGTG, the “relative binding free energy” value stood at 0.1 kcal/mol.

Consider GGTTCCACGTGGGTCA, for which the “relative binding free energy” value was -0.04 kcal/mol.

TAGCTCACGTGGTGGA: the “relative binding free energy” value worked out at 0.04 kcal/mol.

Consider TATCGCACGTGTGTGG, for which the “relative binding free energy” value was -0.12 kcal/mol.

Turning to TAAGTCACGTGTGGGA, the “relative binding free energy” value is 0.11 kcal/mol.

In the case of TCATTCACGTGGATGG, the “relative binding free energy” value was determined as 0.31 kcal/mol.

As to TGTAGCACGTGCTATT, the “relative binding free energy” value is -0.12 kcal/mol.

Consider GATGTCACGTGTTCTG, for which the “relative binding free energy” value worked out at 0.02 kcal/mol.

On to TTCATCACGTGTGGAG, for which the “relative binding free energy” value was found to be 0 kcal/mol.

Turning to GGTTTCACGTGTAGTA, the “relative binding free energy” value came out at 0.34 kcal/mol.

Take GGTATCACGTGGGCAT: the “relative binding free energy” value came to 0.02 kcal/mol.

For the sequence GTACGCACGTGGGTGC, the “relative binding free energy” value is -0.23 kcal/mol.

With CATTTCACGTGAGTTT, the “relative binding free energy” value was 0.33 kcal/mol.

Take GTTCGCACGTGGCGGT: the “relative binding free energy” value is -0.09 kcal/mol.

Consider CGTGGCACGTGGGCGC, for which the “relative binding free energy” value is -0.26 kcal/mol.

As for GCTATCACGTGTGTAG, the “relative binding free energy” value came out at 0.13 kcal/mol.

For the sequence TTAGTCACGTGACTAG, the “relative binding free energy” value came to 0.19 kcal/mol.

As to GGGAGCACGTGTAGGG, the “relative binding free energy” value is -0.08 kcal/mol.

For GAGTGCACGTGGTAAG, the “relative binding free energy” value was -0.03 kcal/mol.

Regarding GGGTTCACGTGGAGTA, the “relative binding free energy” value came out at 0.23 kcal/mol.

Take GGTTGCACGTGTGGAC: the “relative binding free energy” value came out at 0.09 kcal/mol.

With TGTGTCACGTGGATGT, the “relative binding free energy” value was -0.03 kcal/mol.

Turning to AGTATCACGTGATCGT, the “relative binding free energy” value turned out to be 0.3 kcal/mol.

For the sequence TGTGGCACGTGTCAGA, the “relative binding free energy” value was -0.16 kcal/mol.

In the case of TGACGCACGTGGATTG, the “relative binding free energy” value was -0.05 kcal/mol.

As for GATGGCACGTGATTGA, the “relative binding free energy” value is 0.12 kcal/mol.

For the sequence CGTATCACGTGTTTGT, the “relative binding free energy” value stood at 0.08 kcal/mol.

TCCTTCACGTGGTATT: the “relative binding free energy” value stood at 0.29 kcal/mol.

GGATGCACGTGTGGTG: the “relative binding free energy” value was 0.05 kcal/mol.

In the case of TTTAGCACGTGTTAGT, the “relative binding free energy” value was -0.21 kcal/mol.

GGTTACACGTGAGGCG: the “relative binding free energy” value was 0.43 kcal/mol.

For TTGATCACGTGGATTG, the “relative binding free energy” value came out at 0.25 kcal/mol.

Take AGGTTCACGTGTCTTT: the “relative binding free energy” value came to 0.3 kcal/mol.

Take ATCGACACGTGTTTTT: the “relative binding free energy” value turned out to be 0.18 kcal/mol.

TGGTTCACGTGTGGTA: the “relative binding free energy” value was 0.32 kcal/mol.

In the case of CTTCTCACGTGTTTTG, the “relative binding free energy” value is 0.19 kcal/mol.

As to TTGCACACGTGATTGG, the “relative binding free energy” value was found to be 0.13 kcal/mol.

As to TCAAGCACGTGTTGGT, the “relative binding free energy” value is -0.17 kcal/mol.

In the case of ATTTTCACGTGAGTAA, the “relative binding free energy” value is 0.25 kcal/mol.

GGGTACACGTGGTGTG: the “relative binding free energy” value was determined as 0.09 kcal/mol.

Turning to GTGGCCACGTGAGTGA, the “relative binding free energy” value is 0.24 kcal/mol.

Take CTAATCACGTGATTTT: the “relative binding free energy” value was determined as 0.32 kcal/mol.

Consider TGAATCACGTGAGGTT, for which the “relative binding free energy” value is 0.4 kcal/mol.

Turning to GTTTTCACGTGTTCGC, the “relative binding free energy” value was found to be 0.4 kcal/mol.

As to TCAAACACGTGTGGGT, the “relative binding free energy” value is 0.15 kcal/mol.

For ATTTGCACGTGGGGAC, the “relative binding free energy” value is -0.09 kcal/mol.

As for TAAAGCACGTGGCGGG, the “relative binding free energy” value was -0.24 kcal/mol.

Turning to ACATTCACGTGGATGG, the “relative binding free energy” value was determined as 0.29 kcal/mol.

Take CTGGGCACGTGTGTTT: the “relative binding free energy” value was -0.05 kcal/mol.

Take GCGGGCACGTGAGGAA: the “relative binding free energy” value was 0.12 kcal/mol.

Consider TAGTACACGTGCGGGT, for which the “relative binding free energy” value came to 0.1 kcal/mol.

On to GGGCGCACGTGGCGGA, for which the “relative binding free energy” value was -0.21 kcal/mol.

Take TTGTTCACGTGCGTCT: the “relative binding free energy” value was 0.34 kcal/mol.

For the sequence ATTGGCACGTGTGCCG, the “relative binding free energy” value is -0.14 kcal/mol.

Turning to TAAGTCACGTGAGGGT, the “relative binding free energy” value came out at 0.45 kcal/mol.

Consider TTCAGCACGTGTCGGT, for which the “relative binding free energy” value is -0.11 kcal/mol.

On to AATGCCACGTGGGATG, for which the “relative binding free energy” value is -0.11 kcal/mol.

On to TGGCTCACGTGACAGG, for which the “relative binding free energy” value was 0.36 kcal/mol.

Turning to TGCGTCACGTGTAAAG, the “relative binding free energy” value came out at 0.12 kcal/mol.

Turning to CGATGCACGTGTGGTA, the “relative binding free energy” value was -0.14 kcal/mol.

GTTGGCACGTGGACGC: the “relative binding free energy” value was found to be 0.05 kcal/mol.

With AGTTTCACGTGGTGAG, the “relative binding free energy” value stood at 0.43 kcal/mol.

On to TATTGCACGTGGGTGG, for which the “relative binding free energy” value is -0.07 kcal/mol.

As to GTGCGCACGTGGTGTT, the “relative binding free energy” value is -0.05 kcal/mol.

TCTCGCACGTGGTTGG: the “relative binding free energy” value is -0.01 kcal/mol.

On to AGGGACACGTGGGTGA, for which the “relative binding free energy” value was -0.09 kcal/mol.

Consider AGAATCACGTGTAAGG, for which the “relative binding free energy” value came to 0.28 kcal/mol.

As for GTGATCACGTGAGAGT, the “relative binding free energy” value turned out to be 0.29 kcal/mol.

For the sequence TTATGCACGTGGGGCA, the “relative binding free energy” value was -0.18 kcal/mol.

The values above are taken from the BET-seq Pho4 binding data (Le et al. 2018).
